In PubChem BioAssay AID485294 (National Center for Advancing Translational Sciences (NCATS), 2010):
Out of some 370,000 compounds screened, about 150 (0.041%) were called active. Inconclusive means that the source gave no clear call. Such entries were picked first, then a sample of the others. Calls follow the shape of the dose curve; as a rule, active = well fitted inhibition curve with a large enough effect; inconclusive = small, poorly fitted or top-dose-only effect; inactive = flat fitted curve, though single readings scatter. Potencies of inconclusive entries are left out as doubtful fits.

target: Beta-lactamase (Escherichia coli (strain K12)) (UniProt P00811); test: qHTS Inhibitors of AmpC Beta-Lactamase (assay with detergent); conditions: AmpC hydrolysis of nitrocefin, absorbance 480 nm, 0.01% Triton; series mostly up to 114 µM; also: nearly all actives have a fitted effect of over 25% in size
UniProt P00811, sequence (P00811 whole entry, looked up): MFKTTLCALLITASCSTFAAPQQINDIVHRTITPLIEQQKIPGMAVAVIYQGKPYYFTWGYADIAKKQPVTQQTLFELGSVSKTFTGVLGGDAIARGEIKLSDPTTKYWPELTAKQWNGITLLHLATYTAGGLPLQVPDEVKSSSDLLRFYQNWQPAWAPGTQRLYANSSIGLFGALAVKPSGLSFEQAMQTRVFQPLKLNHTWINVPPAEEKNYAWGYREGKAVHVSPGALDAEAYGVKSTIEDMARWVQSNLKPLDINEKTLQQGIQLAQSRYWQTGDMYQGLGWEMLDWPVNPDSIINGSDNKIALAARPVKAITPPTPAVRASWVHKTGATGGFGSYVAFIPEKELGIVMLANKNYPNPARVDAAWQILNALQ
How it was run: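 20 mM phosphate pH 7.0 + 0.01% (detergent screen) or 0.0001% Triton X-100; 5.3 nM AmpC reagent; cpd preinc 15 min RT; nitrocefin (800 uM stock) to start; A480 q20 s × 4 min; Activity was normalised to no-enzyme and no-compound control wells.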
Potency is read from the fitted curve at half-maximal effect; tags tell the direction and shape of the fitted curve.

Row | Structure (SMILES) | Potency
1 | COc1ccc(C(C)=O)c(OC(=O)c2ccc(OC)c(OC)c2)c1 | inconclusive [inhibitor, partial curve]
2 | CCN(c1ccc(OC)cc1)S(=O)(=O)c1cc(-c2cc(C)no2)ccc1C(C)C | inactive
3 | CCN(CC)S(=O)(=O)c1ccc(N2CCN(C)CC2)c(NC(=O)COc2ccc(F)cc2Cl)c1 | inconclusive [inhibitor, partial curve, poor fit]
4 | Cc1cccc(NC(=O)CSc2nc(=O)n(CCCN3CCOCC3)c3c2CCCC3)c1 | inconclusive [inhibitor, full curve]
5 | CCOC(=O)CCCNC(=O)CCNC(=O)c1ccc(OCC)cc1 | inconclusive [inhibitor, full curve]
6 | O=C(NCc1ccc2c(c1)OCO2)c1ccc(CS(=O)Cc2cccc(Cl)c2)o1 (configuration not stated) | inconclusive [inhibitor, full curve, poor fit]
7 | COc1ccc(OCc2nc(N)nc(Nc3cccc(C)c3C)n2)cc1 | inconclusive [inhibitor, full curve, poor fit]
8 | Cc1cc(=O)oc2c(C)c(OC(C)C(=O)N3CC[C@@]4(O)CCCC[C@H]4C3)ccc12 (some centres not stated) | inconclusive [inhibitor, partial curve, poor fit]
9 | O=C(Cc1ccccc1)NC1c2ccccc2-c2ccccc21 | inconclusive [inhibitor, single point]
10 | CCCC1=Nc2cc(C(=O)NCCN3CCCC3)ccc2Sc2ccccc21 | inconclusive [inhibitor, full curve, poor fit]
11 | Cc1cccc(-c2sc(Nc3ccccc3)n[n+]2-c2ccc(F)cc2)c1 | inconclusive [inhibitor, full curve, poor fit]
12 | O=C1CN(c2nc3ccccc3n3cnnc23)CC(=O)N1CCc1ccccc1 | inconclusive [inhibitor, full curve, poor fit]
13 | Cc1ccc(P(=O)(OCCN2CCOCC2)C(C)(C)C)o1 (configuration not stated) | inconclusive [inhibitor, partial curve]
14 | COc1ccc(S(=O)(=O)Nc2cccc(C)c2C)c2cccnc12 | inconclusive [inhibitor, partial curve, poor fit]
15 | COc1ccc(CNC(=O)c2ccccc2SC)cc1 | inconclusive [inhibitor, full curve, poor fit]
16 | O=c1c2ccccc2nc2n1CCO2 | inactive
17 | Cc1ccc2nc(NC(=O)C(NS(=O)(=O)c3cccc4nsnc34)C(C)C)sc2c1 (configuration not stated) | inconclusive [inhibitor, full curve]
